From PubChem BioAssay (NCI)
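Briefly, cells in 96-well plates were exposed to five compound concentrations for 48 h, and endpoints were estimated by linear interpolation. GI50 = concentration required for 50% inhibition of growth. TGI: total growth inhibition.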

These compounds were tested on NCI-H322M lung (assay: NCI-60 cell line screen, 48 h).

Compound | GI50 | TGI
COc1cc2c3c(n(CCCNCC4CC4)c(=O)c2cc1OC)-c1cc2c(cc1C3=O)OCO2 | 4100 nM | 18.3 µM
Nc1ccc(-c2nnc(SCc3ccc(O)c4ncccc34)n2-c2ccccc2)cc1 | 116 nM | > 100 µM
N/C(=N\c1nc2c(Br)cccc2s1)C(Br)Br | 12800 nM | 34 µM
O=C(N/N=C/c1ccc(Br)s1)c1[nH]c2ccc(Br)cc2c1-c1ccccc1 | 1710 nM | > 100 µM
